This is an account of results in PMC12820563.

Some of the results follow. The list includes weakly bound sequences.

This assay concerns the target T1, MBP-FoxP3dN (UniProt Q99JB6).
T1 sequence: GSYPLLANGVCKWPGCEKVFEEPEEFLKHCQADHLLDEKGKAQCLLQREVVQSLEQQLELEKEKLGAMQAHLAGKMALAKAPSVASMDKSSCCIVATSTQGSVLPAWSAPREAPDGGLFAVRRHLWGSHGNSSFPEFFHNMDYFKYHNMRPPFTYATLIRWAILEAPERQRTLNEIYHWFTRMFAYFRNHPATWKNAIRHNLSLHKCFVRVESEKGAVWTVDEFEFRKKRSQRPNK
Put plainly: PD-seq (MBP pull-down with sequencing). As to conditions: 20 mM Tris-HCl pH 7.5, 100 mM NaCl, 1.5 mM MgCl2, 0.4 uM protein, 0.1 uM dsDNA library, 30 min, room temperature, amylose pull-down; high values mean tight binding; double strand, one strand shown.
As to “GATGATTGTTCTCCCAGCTGATGAATTGGGTATCTCGAGTAAACAAATTTTCCTAATCTTTCTGTTCAAGCGCCATCTAC”, the binding signal (RPM ratio (pull-down/input)) came to 2.44.
Next, “GATGATTGTTCTCCCAGCTGATGAATTCGCCCCCTCGAGTAAACAAATTTTCCTAATCTTTCTGTTCAAGCGCCATCTAC”: 0.388.
Take “GATGATTGTTCTCCCAGCTGATGAATTCAGCATGTCGAGTAAACAAATTTTCCTAATCTTTCTGTTCAAGCGCCATCTAC”: the binding signal (RPM ratio (pull-down/input)) worked out at 4.71.
Next, “GATGATTGTTCTCCCAGCTGATGAATTGATGGACTCGAGTAAACAAATTTTCCTAATCTTTCTGTTCAAGCGCCATCTAC”: 0.493; “GATGATTGTTCTCCCAGCTGATGAATTCGTTAACTCGAGTAAACAAATTTTCCTAATCTTTCTGTTCAAGCGCCATCTAC”: 0.54; “GATGATTGTTCTCCCAGCTGATGAATTAGGGTCGTCGAGTAAACAAATTTTCCTAATCTTTCTGTTCAAGCGCCATCTAC”: 0.706.
Next, “GATGATTGTTCTCCCAGCTGATGAATTGACTCGATCGAGTAAACAAATTTTCCTAATCTTTCTGTTCAAGCGCCATCTAC”: 0.303; “GATGATTGTTCTCCCAGCTGATGAATTTAGATAGTCGAGTAAACAAATTTTCCTAATCTTTCTGTTCAAGCGCCATCTAC”: 0.637; “GATGATTGTTCTCCCAGCTGATGAATTCCTCTGATCGAGTAAACAAATTTTCCTAATCTTTCTGTTCAAGCGCCATCTAC”: 0.244.
Next, “GATGATTGTTCTCCCAGCTGATGAATTATGTATGTCGAGTAAACAAATTTTCCTAATCTTTCTGTTCAAGCGCCATCTAC”: 4.99; “GATGATTGTTCTCCCAGCTGATGAATTCATTAATTCGAGTAAACAAATTTTCCTAATCTTTCTGTTCAAGCGCCATCTAC”: 0.349.
On to “GATGATTGTTCTCCCAGCTGATGAATTCGGTAAGTCGAGTAAACAAATTTTCCTAATCTTTCTGTTCAAGCGCCATCTAC”, for which the binding signal (RPM ratio (pull-down/input)) was 0.389.
Regarding “GATGATTGTTCTCCCAGCTGATGAATTACAAACCTCGAGTAAACAAATTTTCCTAATCTTTCTGTTCAAGCGCCATCTAC”, the binding signal (RPM ratio (pull-down/input)) came to 0.531.
Next, “GATGATTGTTCTCCCAGCTGATGAATTAGCCATGTCGAGTAAACAAATTTTCCTAATCTTTCTGTTCAAGCGCCATCTAC”: 0.552; “GATGATTGTTCTCCCAGCTGATGAATTGGCTATCTCGAGTAAACAAATTTTCCTAATCTTTCTGTTCAAGCGCCATCTAC”: 0.713; “GATGATTGTTCTCCCAGCTGATGAATTTAGAAGCTCGAGTAAACAAATTTTCCTAATCTTTCTGTTCAAGCGCCATCTAC”: 0.266.
Under “GATGATTGTTCTCCCAGCTGATGAATTCATTGGATCGAGTAAACAAATTTTCCTAATCTTTCTGTTCAAGCGCCATCTAC” stands 0.307; under “GATGATTGTTCTCCCAGCTGATGAATTCGAGTTGTCGAGTAAACAAATTTTCCTAATCTTTCTGTTCAAGCGCCATCTAC”, 0.822.
Next, “GATGATTGTTCTCCCAGCTGATGAATTTTAGAAATCGAGTAAACAAATTTTCCTAATCTTTCTGTTCAAGCGCCATCTAC”: 0.28; “GATGATTGTTCTCCCAGCTGATGAATTTTGTCCTTCGAGTAAACAAATTTTCCTAATCTTTCTGTTCAAGCGCCATCTAC”: 1.7; “GATGATTGTTCTCCCAGCTGATGAATTGAGACGTTCGAGTAAACAAATTTTCCTAATCTTTCTGTTCAAGCGCCATCTAC”: 0.368.
As to “GATGATTGTTCTCCCAGCTGATGAATTGCCTATCTCGAGTAAACAAATTTTCCTAATCTTTCTGTTCAAGCGCCATCTAC”, the binding signal (RPM ratio (pull-down/input)) is 0.625.
Next, “GATGATTGTTCTCCCAGCTGATGAATTACTCGACTCGAGTAAACAAATTTTCCTAATCTTTCTGTTCAAGCGCCATCTAC”: 0.292; “GATGATTGTTCTCCCAGCTGATGAATTGGAGAAGTCGAGTAAACAAATTTTCCTAATCTTTCTGTTCAAGCGCCATCTAC”: 0.175; “GATGATTGTTCTCCCAGCTGATGAATTAGCATAGTCGAGTAAACAAATTTTCCTAATCTTTCTGTTCAAGCGCCATCTAC”: 0.596.
“GATGATTGTTCTCCCAGCTGATGAATTTACTGGATCGAGTAAACAAATTTTCCTAATCTTTCTGTTCAAGCGCCATCTAC”: the binding signal (RPM ratio (pull-down/input)) was found to be 0.332.
Under “GATGATTGTTCTCCCAGCTGATGAATTATTCTTGTCGAGTAAACAAATTTTCCTAATCTTTCTGTTCAAGCGCCATCTAC” stands 0.299.
Next, “GATGATTGTTCTCCCAGCTGATGAATTGGTTACTTCGAGTAAACAAATTTTCCTAATCTTTCTGTTCAAGCGCCATCTAC”: 0.72; “GATGATTGTTCTCCCAGCTGATGAATTCGTGCCGTCGAGTAAACAAATTTTCCTAATCTTTCTGTTCAAGCGCCATCTAC”: 0.671; “GATGATTGTTCTCCCAGCTGATGAATTTCGCATTTCGAGTAAACAAATTTTCCTAATCTTTCTGTTCAAGCGCCATCTAC”: 6.94.
In the case of “GATGATTGTTCTCCCAGCTGATGAATTCATGCATTCGAGTAAACAAATTTTCCTAATCTTTCTGTTCAAGCGCCATCTAC”, the binding signal (RPM ratio (pull-down/input)) stood at 5.77.
